Among all 410,000 compounds or so, about 5,000 (1.2%) were called active. The shares of active, inactive and inconclusive entries below differ from those in the screen. Calls come from the whole dose curve; as a rule, active = well fitted inhibition curve with a large enough effect; inconclusive = small, poorly fitted or top-dose-only effect; inactive = no such curve, though single readings can be large or run the other way. Where the call is inconclusive, the potency comes from a doubtful curve fit.
Assay: qHTS for Inhibitors of TGF-b; note: nearly all actives have a fitted effect of over 65% in size
Details: HepG2 CAGA-GFP TGF-b/SMAD3 reporter, GFP fluorescence, 18 h, TGF-beta stimulated, 500 pg/mL final; series mostly up to 46.1 µM; activity, negative = inhibition: at the top concentration
How it was run: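 First, reporter cells (HEPG2 CAGA-GFP) rested 2 h at 37 degrees C. Next, compounds were pinned in and TGF-beta added to 500 pg/mL final. After 18 h, GFP was imaged per cell and summed per well.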
% is set by controls: 0 for no effect and ±100 for the full control effect; potency is the fitted concentration of half-maximal effect; tags give direction and shape of the fitted curve.

SMILES	Potency	activity, negative = inhibition
COc1cc(-c2nc3ccc4ccccc4c3c3c2CCC3)ccc1O	inconclusive: 35.5 µM [inhibitor, single point]	–
COc1ccc(Br)cc1/C=N/NC(=O)CNC(=O)/C=C/c1ccccc1	inconclusive: 11.2 µM [inhibitor, partial curve, poor fit]	–
CC1CC(=Cc2ccc(N)cc2)C(=O)O1 (stereo not drawn)	–	inactive: 9.52%
CCOc1ccc(N2C(=O)CC(SCCN)C2=O)cc1 (stereo not drawn)	–	inactive: 5.54%
CCN(CC)P(=O)(Nc1ccc(C)cc1Br)c1ccc(N(C)C)cc1NC(=O)c1ccco1 (stereo not drawn)	–	inactive: 13.9%
COc1ccc(NC(=O)CSc2ccc3nc(-c4ccccc4)cn3n2)c(OC)c1	inconclusive: 10 µM [inhibitor, partial curve, poor fit]	–
CCc1ccc(NC(=O)CCn2c(=O)c3cccn3c3ccccc32)cc1	inactive	–
Cc1ccccc1NC(=O)CSc1nc2ccc(NC(=O)c3cccs3)cc2s1	inconclusive: 22.4 µM [inhibitor, single point]	–
CCO[C@@H]1OC(C(=O)N2CCN(Cc3ccc4c(c3)OCO4)CC2)=C[C@H](c2coc3ccccc3c2=O)[C@H]1CCCO	–	inactive: -17.6%
CSc1cccc(NC(=O)c2cccc(N3CCCS3(=O)=O)c2)c1	inconclusive: 0.282 µM [inhibitor, full curve, poor fit]	–
CCCCC[C@@H]1C=C(C(=O)O)[C@H](c2ccc(Br)cc2)N1S(=O)(=O)c1ccc(C)cc1	inconclusive: 35.5 µM [inhibitor, single point]	–
COc1ccccc1CNC(=O)c1cc2sccc2n1Cc1ccc(Cl)cc1	–	inactive: -6.84%
Clc1ccc(OCCOCCNCc2ccccc2)cc1Cl	active: 11.2 µM	–
CC1CC(C)CN(S(=O)(=O)c2ccc(C(=O)N(C)Cc3ccccc3)cc2)C1 (stereo not drawn)	inconclusive: 22.4 µM [inhibitor, single point]	–
Cc1cc(C(=O)OC(C)C(=O)Nc2cccc(Cl)c2)on1 (stereo not drawn)	–	inactive: 6.39%
O=C(CN1C(=O)CC(c2ccccc2)Sc2ccccc21)NCC1CCCO1 (stereo not drawn)	–	inactive: -1.05%
O=C(C1CCCN(S(=O)(=O)c2cccc3nsnc23)C1)N1CCN(c2ccccc2F)CC1 (stereo not drawn)	inconclusive: 7.08 µM [inhibitor, partial curve, poor fit]	–
CCOc1cc(/C=N/NC(=O)c2ccncc2)ccc1OS(C)(=O)=O	inconclusive: 15.8 µM [inhibitor, single point]	–
CCC(C)NC(=O)CSc1nc2n[nH]c(C)c2c(=N)n1-c1cc(Cl)ccc1C (stereo not drawn)	inconclusive: 17.8 µM [inhibitor, partial curve, poor fit]	–
Cc1ccc(-c2csc(NC(=O)C3=COCCO3)n2)cc1C	inconclusive: 12.6 µM [inhibitor, partial curve, poor fit]	–
CC1(C(=O)NCc2ccccc2Br)CCN1Cc1csc2ccccc12 (stereo not drawn)	inconclusive: 15.8 µM [inhibitor, single point]	–
CCC1=Nc2cc(C(=O)NC3CCC(C)CC3)ccc2Sc2ccc(C)cc21 (stereo not drawn)	inconclusive: 1.41 µM [inhibitor, full curve]	–

SMILES	Potency	activity, negative = inhibition
CCc1nc(N)c(C#N)c(-c2ccccc2OC)c1C	–	inactive: 15.6%
Cc1cccc(NC(=O)COC(=O)CCCC2=NS(=O)(=O)c3ccccc3N2)c1	inconclusive: 8.91 µM [inhibitor, partial curve, poor fit]	–
O=C(Nc1ccc(F)cc1C(F)(F)F)C1CCN(c2ncccn2)CC1	inconclusive: 0.631 µM [inhibitor, partial curve, poor fit]	–
Cc1cccc(NC(=O)c2c(C)cc(C)nc2SCC(=O)c2ccccc2)c1	inconclusive: 11.2 µM [inhibitor, partial curve, poor fit]	–
CCC[C@H]1COCCS(=O)(=O)N1Cc1ccc(Br)cc1	inconclusive: 35.5 µM [inhibitor, single point]	–
Cc1cc(C)c2oc(C(=O)Nc3ccc(S(=O)(=O)N4CCCCCC4)cc3)cc(=O)c2c1	inconclusive: 0.112 µM [inhibitor, full curve, poor fit]	–
CCCCSc1nnc(-c2c[nH]c3ccccc23)n1C	inconclusive: 5.01 µM [inhibitor, single point]	–
CCN(CC)CCCNC(=O)c1ccc2c3n(nc2c1)-c1ccc(Cl)cc1CO3	inconclusive: 35.5 µM [inhibitor, single point]	–
Cc1ccc(SCC(=O)Nc2ccc(C(=O)Nc3ccc(O)cc3)cc2)cc1	–	inactive: 3.64%
COc1ccc(CN2CCN(c3cccc(C)c3C)CC2)cc1OC	–	inactive: -15.8%
CC(=O)N(c1ccccc1)C1CC(C)N(C(=O)c2ccccc2)c2ccccc21 (stereo not drawn)	inconclusive: 1.58 µM [inhibitor, full curve, poor fit]	–
CCOC(=O)c1nc(NCc2cccc(OC)c2)c2ccccc2n1	inconclusive: 35.5 µM [inhibitor, single point]	–
COc1ccc(-c2c(NC(=O)C(C)C)n(C)c3ccccc3c2=O)cc1	inconclusive: 0.112 µM [inhibitor, full curve, poor fit]	–
NC(=O)N/N=C/c1sc(N2CCCCC2)nc1-c1cccs1	inconclusive: 12.6 µM [inhibitor, single point]	–
CN1CCN(/N=C/c2ccc(N(c3ccccc3)c3ccccc3)cc2)CC1	active: 2 µM	–
S=C(Nc1ccc(Cl)cc1Cl)Nc1ccccc1Oc1ccccc1	inconclusive: 7.08 µM [inhibitor, partial curve]	–
Cc1ccc2[nH]c(C)c(/C=C/c3cc[n+](C)cc3)c2c1	–	inactive: 110%
CC(=O)N1CCc2c(sc3c2c(=O)n(Cc2ccccc2)c(=O)n3Cc2ccc(C)cc2)C1	inconclusive: 6.31 µM [inhibitor, single point]	–
Cc1ccccc1-c1nc(CN2CCC(C(=O)NCCCN3CCCC3)CC2)c(C)o1	–	inactive: 28.7%
COC(=O)c1cc(NS(=O)(=O)c2ccc(N3CCCCCC3)c([N+](=O)[O-])c2)cc(C(=O)OC)c1	inconclusive: 7.08 µM [inhibitor, partial curve, poor fit]	–
C/C(=N\NC(=S)NCc1ccccc1)c1ccccc1	inconclusive: 15.8 µM [inhibitor, single point]	–

From PubChem BioAssay AID588855 (National Center for Advancing Translational Sciences (NCATS), 2011)
